# Measurements from the supplement of paper PMC8728848.
# This is one part of the list.
# B1: PX9961V-pdi-562-26-562 (Parabacteroides distasonis) (protein)
# chain: EIFSEITTDNYYQNSNNIYAALVNNYAKAFSTGWSDARYFLQEVTADQLMIPTRGKHGYNGGEYVRLHEHKWTVEENFVYNGWAAPFQGIALCNNTLSDFENLDFSTFKLTEETKNEYIAELRALRVWNYMFLIDFFRHVPIVTDIEEVKAQSTPLEVFNFMESELLAILPDLPKNRGVSRFDQAGVASILVRLYLNAEKWIGISKYDECEQMAQAILDGKYGEYSIDPDYRGPFRSGINGYRSKENIMEFAIKKNYFEASWLYNMWMHYQDRYSLDNDWQGWNGGNLAPSRDLYGNLYQDKLGMPFEKFPDGDIRKKAFRVISNDGDYEGFFLMGTQYKFDYEKGYGFTDEVITGTEEYNGKPLVYVDQVGRFSEGETGLAKGSHVIYGEENTGYRLIKFPWLPQSKDLFQMNSIPEIRLAEIYYSLAECKYRSGDKIGAARLLDVVRKRYYKAEDWSKFSYESNISKLTDDEFVDELGREFIGERHRRIDLIRWNRFSEGAWWDKTPDATNQDVFPIPYRALNANPLLKQTTAGF
# How the values were obtained:
# Assay in all cases: glycan array binding signal (z-score within array); higher = stronger binding
# Conditions in all cases: glycan notation: IUPAC condensed, linker removed
# [1] = biological target: Gal(a1-3)Gal(b1-4)GlcNAc(b1-2)Man
# In short: (§1)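 Glycan array binding is given as a within-array Z-score, which can be read as non-binding when negative. The arrays, 3228 of them, came from the Consortium for Functional Glycomics database and were retained only where the protein sequence was available. Z-scores were averaged across arrays of the same protein sequence at different concentrations or buffers and across linkers.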
# [2] = biological target: Gal(a1-3)Gal(b1-4)GlcNAc(b1-2)Man(a1-3)[Gal(a1-3)Gal(b1-4)GlcNAc(b1-2)Man(a1-6)]Man(b1-4)GlcNAc(b1-4)GlcNAc
# In short: as §1
# [3] = biological target: Gal(a1-3)Gal(b1-4)GlcNAc(b1-3)GalNAc
# In short: as §1
# [4] = biological target: Gal(a1-3)Gal(b1-4)GlcNAc(b1-6)GalNAc
# In short: as §1
# [5] = biological target: Gal(a1-3)Gal(b1-4)[Fuc(a1-3)]GlcNAc
# In short: as §1
# [6] = biological target: Gal(a1-3)Gal(b1-4)[Fuc(a1-3)]GlcNAc(b1-2)Man(a1-3)[Gal(a1-3)Gal(b1-4)[Fuc(a1-3)]GlcNAc(b1-2)Man(a1-6)]Man(b1-4)GlcNAc(b1-4)GlcNAc
# In short: as §1
# Gal(a1-3)GalNAc = biological target: Gal(a1-3)GalNAc
# In short: as §1
# [7] = biological target: Gal(a1-3)[Gal(a1-4)]Gal(b1-4)GlcNAc
# In short: as §1
# [8] = biological target: Gal(a1-4)Gal(b1-3)GlcNAc(b1-2)Man(a1-3)[Gal(a1-4)Gal(b1-3)GlcNAc(b1-2)Man(a1-6)]Man(b1-4)GlcNAc(b1-4)GlcNAc
# In short: as §1
# Gal(a1-4)Gal(b1-4)Glc = biological target: Gal(a1-4)Gal(b1-4)Glc
# In short: as §1
# Gal(a1-4)Gal(b1-4)GlcNAc = biological target: Gal(a1-4)Gal(b1-4)GlcNAc
# In short: as §1
# [9] = biological target: Gal(a1-4)Gal(b1-4)GlcNAc(b1-2)Man(a1-3)[Gal(a1-4)Gal(b1-4)GlcNAc(b1-2)Man(a1-6)]Man(b1-4)GlcNAc(b1-4)GlcNAc
# In short: as §1
# [10] = biological target: Gal(a1-4)Gal(b1-4)GlcNAc(b1-3)Gal(b1-4)Glc
# In short: as §1
# Gal(a1-4)GlcNAc = biological target: Gal(a1-4)GlcNAc
# In short: as §1
# Gal(a1-6)Glc = biological target: Gal(a1-6)Glc
# In short: as §1
# Gal(b1-2)Gal = biological target: Gal(b1-2)Gal
# In short: as §1
# Gal(b1-3)Gal = biological target: Gal(b1-3)Gal
# In short: as §1
# Gal(b1-3)Gal(b1-4)GlcNAc = biological target: Gal(b1-3)Gal(b1-4)GlcNAc
# In short: as §1
# Gal(b1-3)GalNAc = biological target: Gal(b1-3)GalNAc
# In short: as §1
# [11] = biological target: Gal(b1-3)GalNAc(a1-3)[Fuc(a1-2)]Gal(b1-4)Glc
# In short: as §1
# [12] = biological target: Gal(b1-3)GalNAc(a1-3)[Fuc(a1-2)]Gal(b1-4)GlcNAc
# In short: as §1
# Gal(b1-3)GalNAc(b1-3)Gal = biological target: Gal(b1-3)GalNAc(b1-3)Gal
# In short: as §1
# [13] = biological target: Gal(b1-3)GalNAc(b1-3)Gal(a1-4)Gal(b1-4)Glc
# In short: as §1
# [14] = biological target: Gal(b1-3)GalNAc(b1-4)Gal(b1-4)Glc
# In short: as §1
# [15] = biological target: Gal(b1-3)GalNAc(b1-4)[Neu5Ac(a2-3)]Gal(b1-4)Glc
# In short: as §1
# Gal(b1-3)GlcNAc = biological target: Gal(b1-3)GlcNAc
# In short: as §1
# [16] = biological target: Gal(b1-3)GlcNAc(a1-3)Gal(b1-4)GlcNAc
# In short: as §1
# [17] = biological target: Gal(b1-3)GlcNAc(a1-6)Gal(b1-4)GlcNAc
# In short: as §1
# Gal(b1-3)GlcNAc(b1-2)Man = biological target: Gal(b1-3)GlcNAc(b1-2)Man
# In short: as §1
# [18] = biological target: Gal(b1-3)GlcNAc(b1-2)Man(a1-3)[Gal(b1-3)GlcNAc(b1-2)Man(a1-6)]Man(b1-4)GlcNAc(b1-4)GlcNAc
# In short: as §1
# [19] = biological target: Gal(b1-3)GlcNAc(b1-2)Man(a1-3)[Gal(b1-3)GlcNAc(b1-2)Man(a1-6)]Man(b1-4)GlcNAc(b1-4)[Fuc(a1-6)]GlcNAc
# In short: as §1
# [20] = biological target: Gal(b1-3)GlcNAc(b1-2)Man(a1-3)[GlcNAc(b1-4)][Gal(b1-3)GlcNAc(b1-2)Man(a1-6)]Man(b1-4)GlcNAc(b1-4)GlcNAc
# In short: as §1
# [21] = biological target: Gal(b1-3)GlcNAc(b1-2)[Gal(b1-3)GlcNAc(b1-6)]Man(a1-6)[Gal(b1-3)GlcNAc(b1-2)Man(a1-3)]Man(b1-4)GlcNAc(b1-4)GlcNAc
# In short: as §1
# [22] = biological target: Gal(b1-3)GlcNAc(b1-3)Gal(b1-3)GlcNAc
# In short: as §1
# [23] = biological target: Gal(b1-3)GlcNAc(b1-3)Gal(b1-4)Glc
# In short: as §1
# [24] = biological target: Gal(b1-3)GlcNAc(b1-3)Gal(b1-4)GlcNAc
# In short: as §1
# [25] = biological target: Gal(b1-3)GlcNAc(b1-3)Gal(b1-4)GlcNAc(b1-2)Man(a1-3)[Gal(b1-3)GlcNAc(b1-3)Gal(b1-4)GlcNAc(b1-2)Man(a1-6)]Man(b1-4)GlcNAc(b1-4)GlcNAc
# In short: as §1
# [26] = biological target: Gal(b1-3)GlcNAc(b1-3)Gal(b1-4)GlcNAc(b1-2)[Gal(b1-3)GlcNAc(b1-3)Gal(b1-4)GlcNAc(b1-6)]Man(a1-6)[Gal(b1-3)GlcNAc(b1-3)Gal(b1-4)GlcNAc(b1-2)Man(a1-3)]Man(b1-4)GlcNAc(b1-4)[Fuc(a1-6)]GlcNAc
# In short: as §1
# [27] = biological target: Gal(b1-3)GlcNAc(b1-3)Gal(b1-4)GlcNAc(b1-3)Gal(b1-4)GlcNAc(b1-2)[Gal(b1-3)GlcNAc(b1-3)Gal(b1-4)GlcNAc(b1-3)Gal(b1-4)GlcNAc(b1-6)]Man(a1-6)[Gal(b1-3)GlcNAc(b1-3)Gal(b1-4)GlcNAc(b1-3)Gal(b1-4)GlcNAc(b1-2)Man(a1-3)]Man(b1-4)GlcNAc(b1-4)[Fuc(a1-6)]GlcNAc
# In short: as §1
# [28] = biological target: Gal(b1-3)GlcNAc(b1-3)Gal(b1-4)GlcNAc(b1-6)[Gal(b1-3)GlcNAc(b1-3)]Gal(b1-4)Glc
# In short: as §1
# [29] = biological target: Gal(b1-3)GlcNAc(b1-3)Gal(b1-4)[Fuc(a1-3)]GlcNAc
# In short: as §1
# [30] = biological target: Gal(b1-3)GlcNAc(b1-3)Gal(b1-4)[Fuc(a1-3)]GlcNAc(b1-6)[Gal(b1-3)GlcNAc(b1-3)]Gal(b1-4)Glc
# In short: as §1
# [31] = biological target: Gal(b1-3)GlcNAc(b1-3)GalNAc
# In short: as §1
# [32] = biological target: Gal(b1-3)GlcNAc(b1-6)Gal(b1-4)GlcNAc
# In short: as §1
# [33] = biological target: Gal(b1-3)GlcNAc(b1-6)GalNAc
# In short: as §1
binder,measurement,setting,value
B1,glycan array binding signal (z-score),[1],-0.105
same,glycan array binding signal (z-score),[2],1.27
same,glycan array binding signal (z-score),[3],-0.109
same,glycan array binding signal (z-score),[4],-0.499
same,glycan array binding signal (z-score),[5],0.078
same,glycan array binding signal (z-score),[6],-0.237
same,glycan array binding signal (z-score),Gal(a1-3)GalNAc,-0.312
same,glycan array binding signal (z-score),[7],2.29
same,glycan array binding signal (z-score),[8],1.06
same,glycan array binding signal (z-score),Gal(a1-4)Gal(b1-4)Glc,-0.099
same,glycan array binding signal (z-score),Gal(a1-4)Gal(b1-4)GlcNAc,-0.127
same,glycan array binding signal (z-score),[9],0.615
same,glycan array binding signal (z-score),[10],0.72
same,glycan array binding signal (z-score),Gal(a1-4)GlcNAc,-0.137
same,glycan array binding signal (z-score),Gal(a1-6)Glc,-0.25
same,glycan array binding signal (z-score),Gal(b1-2)Gal,-0.748
same,glycan array binding signal (z-score),Gal(b1-3)Gal,-0.574
same,glycan array binding signal (z-score),Gal(b1-3)Gal(b1-4)GlcNAc,1.5
same,glycan array binding signal (z-score),Gal(b1-3)GalNAc,-0.185
same,glycan array binding signal (z-score),[11],-0.446
same,glycan array binding signal (z-score),[12],-0.036
same,glycan array binding signal (z-score),Gal(b1-3)GalNAc(b1-3)Gal,-0.646
same,glycan array binding signal (z-score),[13],-0.626
same,glycan array binding signal (z-score),[14],-0.58
same,glycan array binding signal (z-score),[15],-0.422
same,glycan array binding signal (z-score),Gal(b1-3)GlcNAc,-0.534
same,glycan array binding signal (z-score),[16],-0.263
same,glycan array binding signal (z-score),[17],-0.079
same,glycan array binding signal (z-score),Gal(b1-3)GlcNAc(b1-2)Man,-0.428
same,glycan array binding signal (z-score),[18],3.41
same,glycan array binding signal (z-score),[19],5.1
same,glycan array binding signal (z-score),[20],-0.072
same,glycan array binding signal (z-score),[21],1.99
same,glycan array binding signal (z-score),[22],1.29
same,glycan array binding signal (z-score),[23],-0.49
same,glycan array binding signal (z-score),[24],-0.428
same,glycan array binding signal (z-score),[25],0.236
same,glycan array binding signal (z-score),[26],1.65
same,glycan array binding signal (z-score),[27],4.46
same,glycan array binding signal (z-score),[28],-0.3
same,glycan array binding signal (z-score),[29],-0.281
same,glycan array binding signal (z-score),[30],-0.831
same,glycan array binding signal (z-score),[31],0.925
same,glycan array binding signal (z-score),[32],-0.485
same,glycan array binding signal (z-score),[33],-0.064
